Experimental data as given in article PMC12820563, “FoxP3 forms a head-to-head dimer in vivo and stabilizes its multimerization on adjacent microsatellites”.
The list shows a part of the results.

target: T1, MBP-FoxP1dN (Mus musculus, UniProt P58462 326-579); experiment: PD-seq (MBP pull-down with sequencing); 20 mM Tris-HCl pH 7.5, 100 mM NaCl, 1.5 mM MgCl2, 0.4 uM protein, 0.1 uM dsDNA library, 30 min, room temperature, amylose pull-down; high values mean tight binding; details: protein: recombinant; tags: His6-MBP; chain copies: 2; dsDNA, one strand shown
T1 sequence: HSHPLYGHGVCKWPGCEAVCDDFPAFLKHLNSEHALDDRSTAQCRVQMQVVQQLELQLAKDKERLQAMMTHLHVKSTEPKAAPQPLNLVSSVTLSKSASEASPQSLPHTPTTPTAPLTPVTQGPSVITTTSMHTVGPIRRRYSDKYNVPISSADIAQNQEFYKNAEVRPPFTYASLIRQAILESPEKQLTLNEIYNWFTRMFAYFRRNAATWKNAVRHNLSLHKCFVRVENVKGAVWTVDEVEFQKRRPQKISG
In short: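 E. coli-expressed mouse FoxP3 or FoxP1 fragment, N-terminus removed and tagged with His6-MBP, was used at 0.4 µM against 0.1 µM of a Klenow-filled degenerate double-stranded DNA library. After 30 min at room temperature in Tris pH 7.5 buffer with NaCl and MgCl2, complexes were pulled down on amylose resin and washed three times. Binding is pull-down over input reads-per-million enrichment from pooled replicates of the proteinase K-released, PCR-barcoded, Illumina-sequenced DNA.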

Row | Sequence | binding signal
1 | GATGATTGTTCTCCCAGCTGATGAATTCCCTTGATCGAGTAAACAAATTTTCCTAATCTTTCTGTTCAAGCGCCATCTAC | 0.824 RPM ratio (pull-down/input)
2 | GATGATTGTTCTCCCAGCTGATGAATTTTCTGGGTCGAGTAAACAAATTTTCCTAATCTTTCTGTTCAAGCGCCATCTAC | 0.827 RPM ratio (pull-down/input)
3 | GATGATTGTTCTCCCAGCTGATGAATTACCACTATCGAGTAAACAAATTTTCCTAATCTTTCTGTTCAAGCGCCATCTAC | 1.18 RPM ratio (pull-down/input)
4 | GATGATTGTTCTCCCAGCTGATGAATTGCTGGCTTCGAGTAAACAAATTTTCCTAATCTTTCTGTTCAAGCGCCATCTAC | 0.933 RPM ratio (pull-down/input)
5 | GATGATTGTTCTCCCAGCTGATGAATTCAGTGGTTCGAGTAAACAAATTTTCCTAATCTTTCTGTTCAAGCGCCATCTAC | 0.872 RPM ratio (pull-down/input)
6 | GATGATTGTTCTCCCAGCTGATGAATTTACTCGCTCGAGTAAACAAATTTTCCTAATCTTTCTGTTCAAGCGCCATCTAC | 1.2 RPM ratio (pull-down/input)
7 | GATGATTGTTCTCCCAGCTGATGAATTTGGGCGCTCGAGTAAACAAATTTTCCTAATCTTTCTGTTCAAGCGCCATCTAC | 0.867 RPM ratio (pull-down/input)
8 | GATGATTGTTCTCCCAGCTGATGAATTTGTTATTTCGAGTAAACAAATTTTCCTAATCTTTCTGTTCAAGCGCCATCTAC | 2.17 RPM ratio (pull-down/input)
9 | GATGATTGTTCTCCCAGCTGATGAATTGGCGCCTTCGAGTAAACAAATTTTCCTAATCTTTCTGTTCAAGCGCCATCTAC | 0.93 RPM ratio (pull-down/input)
10 | GATGATTGTTCTCCCAGCTGATGAATTTACAGGCTCGAGTAAACAAATTTTCCTAATCTTTCTGTTCAAGCGCCATCTAC | 1.08 RPM ratio (pull-down/input)
11 | GATGATTGTTCTCCCAGCTGATGAATTCCTGGGCTCGAGTAAACAAATTTTCCTAATCTTTCTGTTCAAGCGCCATCTAC | 0.754 RPM ratio (pull-down/input)
12 | GATGATTGTTCTCCCAGCTGATGAATTAACTTACTCGAGTAAACAAATTTTCCTAATCTTTCTGTTCAAGCGCCATCTAC | 0.906 RPM ratio (pull-down/input)
13 | GATGATTGTTCTCCCAGCTGATGAATTATGCCACTCGAGTAAACAAATTTTCCTAATCTTTCTGTTCAAGCGCCATCTAC | 1.06 RPM ratio (pull-down/input)
14 | GATGATTGTTCTCCCAGCTGATGAATTTTACGATTCGAGTAAACAAATTTTCCTAATCTTTCTGTTCAAGCGCCATCTAC | 0.971 RPM ratio (pull-down/input)
15 | GATGATTGTTCTCCCAGCTGATGAATTCATCCTATCGAGTAAACAAATTTTCCTAATCTTTCTGTTCAAGCGCCATCTAC | 0.86 RPM ratio (pull-down/input)
16 | GATGATTGTTCTCCCAGCTGATGAATTGAACTGCTCGAGTAAACAAATTTTCCTAATCTTTCTGTTCAAGCGCCATCTAC | 0.793 RPM ratio (pull-down/input)
17 | GATGATTGTTCTCCCAGCTGATGAATTTGGAACATCGAGTAAACAAATTTTCCTAATCTTTCTGTTCAAGCGCCATCTAC | 1.08 RPM ratio (pull-down/input)
18 | GATGATTGTTCTCCCAGCTGATGAATTAACCGGATCGAGTAAACAAATTTTCCTAATCTTTCTGTTCAAGCGCCATCTAC | 0.846 RPM ratio (pull-down/input)
19 | GATGATTGTTCTCCCAGCTGATGAATTCGTCTACTCGAGTAAACAAATTTTCCTAATCTTTCTGTTCAAGCGCCATCTAC | 0.938 RPM ratio (pull-down/input)
20 | GATGATTGTTCTCCCAGCTGATGAATTCTCGGAGTCGAGTAAACAAATTTTCCTAATCTTTCTGTTCAAGCGCCATCTAC | 0.786 RPM ratio (pull-down/input)

Row | Sequence | binding signal
21 | GATGATTGTTCTCCCAGCTGATGAATTTGCTTCGTCGAGTAAACAAATTTTCCTAATCTTTCTGTTCAAGCGCCATCTAC | 0.979 RPM ratio (pull-down/input)
22 | GATGATTGTTCTCCCAGCTGATGAATTAATAATATCGAGTAAACAAATTTTCCTAATCTTTCTGTTCAAGCGCCATCTAC | 1.51 RPM ratio (pull-down/input)
23 | GATGATTGTTCTCCCAGCTGATGAATTCCGCTGTTCGAGTAAACAAATTTTCCTAATCTTTCTGTTCAAGCGCCATCTAC | 0.908 RPM ratio (pull-down/input)
24 | GATGATTGTTCTCCCAGCTGATGAATTAGGACTTTCGAGTAAACAAATTTTCCTAATCTTTCTGTTCAAGCGCCATCTAC | 0.928 RPM ratio (pull-down/input)
25 | GATGATTGTTCTCCCAGCTGATGAATTGATCCACTCGAGTAAACAAATTTTCCTAATCTTTCTGTTCAAGCGCCATCTAC | 1 RPM ratio (pull-down/input)
26 | GATGATTGTTCTCCCAGCTGATGAATTCCAACTATCGAGTAAACAAATTTTCCTAATCTTTCTGTTCAAGCGCCATCTAC | 0.893 RPM ratio (pull-down/input)
27 | GATGATTGTTCTCCCAGCTGATGAATTACGGTTGTCGAGTAAACAAATTTTCCTAATCTTTCTGTTCAAGCGCCATCTAC | 1.24 RPM ratio (pull-down/input)
28 | GATGATTGTTCTCCCAGCTGATGAATTATAAACGTCGAGTAAACAAATTTTCCTAATCTTTCTGTTCAAGCGCCATCTAC | 1.18 RPM ratio (pull-down/input)
29 | GATGATTGTTCTCCCAGCTGATGAATTGCGAAGTTCGAGTAAACAAATTTTCCTAATCTTTCTGTTCAAGCGCCATCTAC | 1.06 RPM ratio (pull-down/input)
30 | GATGATTGTTCTCCCAGCTGATGAATTGCAGCTTTCGAGTAAACAAATTTTCCTAATCTTTCTGTTCAAGCGCCATCTAC | 1.24 RPM ratio (pull-down/input)
31 | GATGATTGTTCTCCCAGCTGATGAATTGGACAGTTCGAGTAAACAAATTTTCCTAATCTTTCTGTTCAAGCGCCATCTAC | 0.817 RPM ratio (pull-down/input)
32 | GATGATTGTTCTCCCAGCTGATGAATTAAAGTCCTCGAGTAAACAAATTTTCCTAATCTTTCTGTTCAAGCGCCATCTAC | 0.752 RPM ratio (pull-down/input)
33 | GATGATTGTTCTCCCAGCTGATGAATTTGTCTAATCGAGTAAACAAATTTTCCTAATCTTTCTGTTCAAGCGCCATCTAC | 1.28 RPM ratio (pull-down/input)
34 | GATGATTGTTCTCCCAGCTGATGAATTCCTTGTTTCGAGTAAACAAATTTTCCTAATCTTTCTGTTCAAGCGCCATCTAC | 0.969 RPM ratio (pull-down/input)
35 | GATGATTGTTCTCCCAGCTGATGAATTTGCGCCATCGAGTAAACAAATTTTCCTAATCTTTCTGTTCAAGCGCCATCTAC | 1.07 RPM ratio (pull-down/input)
36 | GATGATTGTTCTCCCAGCTGATGAATTCGTGTGTTCGAGTAAACAAATTTTCCTAATCTTTCTGTTCAAGCGCCATCTAC | 1.22 RPM ratio (pull-down/input)
37 | GATGATTGTTCTCCCAGCTGATGAATTGAACATCTCGAGTAAACAAATTTTCCTAATCTTTCTGTTCAAGCGCCATCTAC | 0.875 RPM ratio (pull-down/input)
38 | GATGATTGTTCTCCCAGCTGATGAATTCGTAGTGTCGAGTAAACAAATTTTCCTAATCTTTCTGTTCAAGCGCCATCTAC | 0.887 RPM ratio (pull-down/input)
39 | GATGATTGTTCTCCCAGCTGATGAATTCTGCTACTCGAGTAAACAAATTTTCCTAATCTTTCTGTTCAAGCGCCATCTAC | 0.879 RPM ratio (pull-down/input)
40 | GATGATTGTTCTCCCAGCTGATGAATTGAGTCTATCGAGTAAACAAATTTTCCTAATCTTTCTGTTCAAGCGCCATCTAC | 0.848 RPM ratio (pull-down/input)
